Data reported in paper PMC7442955, “Biochemical and functional characterization of a meiosis-specific Pch2/ORC AAA+ assembly” (Life Science Alliance, 2020).
No constants are given. Whether binding was seen depends on the method and setting. For some assays here: Binding seen in cells or lysates may run through a third protein. Some entries that bind do so weakly or less than the wild type. For some assays here: Tags and fused reporters may be left off the sequences shown.

Tests used:
[1] = molecular target: T1, Orc1–TAP (budding yeast) (UniProt P54784); assay: co-IP; α-TAP IP (Dynabeads protein G) from lysates of meiotic prophase cells (4-5 h into the meiotic program); IP buffer 50 mM Tris–HCl pH 7.5, 150 mM NaCl, 1% Triton X-100, 1 mM EDTA; also with Benzonase, in ORC1 or orc1-161 backgrounds at 23°C, and in orc2–FRB cells with rapamycin or DMSO
T1 sequence: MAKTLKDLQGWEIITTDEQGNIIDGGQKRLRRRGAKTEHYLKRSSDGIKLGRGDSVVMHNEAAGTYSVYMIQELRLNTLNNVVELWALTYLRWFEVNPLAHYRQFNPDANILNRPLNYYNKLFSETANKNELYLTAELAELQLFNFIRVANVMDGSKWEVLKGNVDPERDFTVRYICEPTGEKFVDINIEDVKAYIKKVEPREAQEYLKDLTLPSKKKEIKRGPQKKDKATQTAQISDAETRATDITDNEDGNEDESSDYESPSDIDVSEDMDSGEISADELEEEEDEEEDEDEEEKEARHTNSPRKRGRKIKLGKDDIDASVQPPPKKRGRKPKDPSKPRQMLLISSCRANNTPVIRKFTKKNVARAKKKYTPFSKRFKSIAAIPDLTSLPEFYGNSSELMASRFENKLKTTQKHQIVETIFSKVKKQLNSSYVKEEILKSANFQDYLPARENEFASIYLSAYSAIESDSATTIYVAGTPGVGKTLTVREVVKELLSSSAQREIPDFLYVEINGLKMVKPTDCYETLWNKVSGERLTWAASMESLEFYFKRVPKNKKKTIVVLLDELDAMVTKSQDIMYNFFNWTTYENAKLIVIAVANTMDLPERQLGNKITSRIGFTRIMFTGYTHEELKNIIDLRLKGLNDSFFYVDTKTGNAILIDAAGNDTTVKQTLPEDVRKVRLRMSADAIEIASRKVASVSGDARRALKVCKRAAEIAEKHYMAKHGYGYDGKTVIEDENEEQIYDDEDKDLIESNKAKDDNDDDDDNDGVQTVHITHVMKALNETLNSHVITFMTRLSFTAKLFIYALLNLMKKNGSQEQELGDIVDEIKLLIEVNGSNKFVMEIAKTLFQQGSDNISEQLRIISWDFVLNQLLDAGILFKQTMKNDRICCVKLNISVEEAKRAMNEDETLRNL

[2] = molecular target: T2, His–Orc1 (subunit of the insect cell–purified ORC) (budding yeast), P54784; assay: cross-linking; XL-MS: 0.75 μM His–MBP–Pch2 with 1.5 μM His–ORC, 30 mM HEPES pH 7.5, 150 mM NaCl, 2 mM TCEP, 90 min at 4°C; 3 mM DSBU, 25°C, 1 h; MeroX, 2% FDR; both purified; conditions: remark: other sources report otherwise
T2 chain: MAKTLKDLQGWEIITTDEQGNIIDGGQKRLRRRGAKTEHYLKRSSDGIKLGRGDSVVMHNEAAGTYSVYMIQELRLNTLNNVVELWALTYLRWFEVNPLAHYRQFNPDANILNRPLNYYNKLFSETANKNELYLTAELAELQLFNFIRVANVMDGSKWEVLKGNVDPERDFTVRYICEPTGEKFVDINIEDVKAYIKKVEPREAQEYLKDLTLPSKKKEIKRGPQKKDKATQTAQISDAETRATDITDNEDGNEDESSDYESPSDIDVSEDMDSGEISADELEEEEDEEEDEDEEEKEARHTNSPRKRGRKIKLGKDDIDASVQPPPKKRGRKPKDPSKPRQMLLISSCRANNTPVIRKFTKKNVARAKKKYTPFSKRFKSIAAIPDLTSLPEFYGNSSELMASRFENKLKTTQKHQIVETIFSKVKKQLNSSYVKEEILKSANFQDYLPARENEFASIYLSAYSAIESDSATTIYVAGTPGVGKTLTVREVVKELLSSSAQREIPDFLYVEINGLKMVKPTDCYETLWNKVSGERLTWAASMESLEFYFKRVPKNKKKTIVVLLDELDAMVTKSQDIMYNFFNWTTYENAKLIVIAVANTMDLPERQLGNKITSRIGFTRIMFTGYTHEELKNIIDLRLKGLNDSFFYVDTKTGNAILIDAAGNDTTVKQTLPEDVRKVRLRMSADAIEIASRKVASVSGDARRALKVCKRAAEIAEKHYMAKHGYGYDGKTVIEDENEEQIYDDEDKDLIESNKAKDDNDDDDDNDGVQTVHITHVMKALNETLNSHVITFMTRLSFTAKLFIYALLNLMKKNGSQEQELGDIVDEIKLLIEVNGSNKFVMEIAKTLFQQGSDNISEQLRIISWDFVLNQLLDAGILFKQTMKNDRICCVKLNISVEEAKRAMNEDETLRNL

[3] = molecular target: T3, Orc2 (subunit of the insect cell–purified ORC) (budding yeast) (UniProt P32833); assay: as above
T3 sequence: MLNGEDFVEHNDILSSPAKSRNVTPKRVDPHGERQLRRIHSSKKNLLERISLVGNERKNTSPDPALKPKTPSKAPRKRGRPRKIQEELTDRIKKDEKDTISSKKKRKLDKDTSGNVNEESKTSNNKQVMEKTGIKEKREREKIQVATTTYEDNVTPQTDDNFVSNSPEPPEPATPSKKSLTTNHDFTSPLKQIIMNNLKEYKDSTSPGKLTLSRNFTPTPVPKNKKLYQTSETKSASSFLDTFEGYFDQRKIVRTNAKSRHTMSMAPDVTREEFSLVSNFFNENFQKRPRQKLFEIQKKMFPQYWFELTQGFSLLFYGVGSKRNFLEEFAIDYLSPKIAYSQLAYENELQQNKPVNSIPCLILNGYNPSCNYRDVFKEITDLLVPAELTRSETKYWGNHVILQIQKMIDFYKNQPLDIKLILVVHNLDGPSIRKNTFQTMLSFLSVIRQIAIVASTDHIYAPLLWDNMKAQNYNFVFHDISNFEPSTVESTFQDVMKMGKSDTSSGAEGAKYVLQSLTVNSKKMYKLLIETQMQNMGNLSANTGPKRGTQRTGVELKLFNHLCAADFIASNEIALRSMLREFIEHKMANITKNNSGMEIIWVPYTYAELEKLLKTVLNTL

[4] = molecular target: T4, Orc1 (yeast two-hybrid fusion) (budding yeast) (UniProt P54784); assay: two-hybrid; bait and prey in pGBDU-C1 or pGAD-C1, reporter strain yGV864; spot assay on -Ura-Leu-His plates, 2–4 d
T4 sequence: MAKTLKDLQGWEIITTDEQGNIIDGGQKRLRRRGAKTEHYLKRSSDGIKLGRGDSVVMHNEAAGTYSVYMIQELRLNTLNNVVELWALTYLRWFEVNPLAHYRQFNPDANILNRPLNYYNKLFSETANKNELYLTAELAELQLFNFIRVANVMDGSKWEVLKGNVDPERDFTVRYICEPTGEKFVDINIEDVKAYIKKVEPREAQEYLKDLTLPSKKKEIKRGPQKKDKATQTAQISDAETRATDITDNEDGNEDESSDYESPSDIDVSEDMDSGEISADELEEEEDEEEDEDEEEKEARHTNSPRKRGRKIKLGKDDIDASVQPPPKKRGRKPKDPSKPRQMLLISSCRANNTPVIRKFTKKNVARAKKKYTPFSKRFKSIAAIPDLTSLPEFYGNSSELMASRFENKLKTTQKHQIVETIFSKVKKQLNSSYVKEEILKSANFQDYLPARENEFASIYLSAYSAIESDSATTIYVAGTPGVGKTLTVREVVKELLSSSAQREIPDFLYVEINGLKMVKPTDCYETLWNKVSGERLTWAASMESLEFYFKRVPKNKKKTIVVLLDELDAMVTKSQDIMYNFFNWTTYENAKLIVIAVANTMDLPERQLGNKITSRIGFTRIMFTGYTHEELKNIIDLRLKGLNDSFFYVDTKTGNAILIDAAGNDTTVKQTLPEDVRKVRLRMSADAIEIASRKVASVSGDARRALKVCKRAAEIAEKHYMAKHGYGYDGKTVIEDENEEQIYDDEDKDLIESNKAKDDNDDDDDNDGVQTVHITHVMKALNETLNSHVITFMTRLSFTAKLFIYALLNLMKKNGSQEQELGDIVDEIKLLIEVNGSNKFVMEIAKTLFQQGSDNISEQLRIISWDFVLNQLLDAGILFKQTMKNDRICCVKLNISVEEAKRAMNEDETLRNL

B1: Pch2 (wild type, expressed in meiotic cells) (protein, UniProt P38126 1-564)
chain: MSYIVDLQVRGSSLRVIKCMFREDEQISSLHSGSDSKQNSNKKLGEFLNLLKAVVKRKLESFPKDRLKTSIITGQELMREGQGSIEIKDPPTEAQQHLIRSLAKVLLHQFSSINGKVNTVNEGQDNLFLSLFVKKISIEQQSTSHVSIKLNFHEKINLGQHIDSILDSEETNESDTYHMGSVDEFIIYPFCCLEEQDELKNGSILSTEFDKIDLELDEDDGFEGETLNNCINSVGNFDIPLSKQTLNLVNISYLPGTTFEGQWESLYFGNNIKERLYSYATISLKIARFKQTGDSNQEDITTLITNNKLLLVHGPPGTGKTTLCKALCQKLSVRREFSDGSDTIDTNYKGIIIELSCARIFSKWFGESSKNISIVFKDIEELLKVNEGRGIFICLLIDEVEAIASSRTNLSSRNESTDGIRVVNTLLTQLDRLKKYHNFLALATSNLLDSLDDAFVDRADGVFYVGNPTAEGILHILKVCIEEMITSGIILFHARSTGVKFFNKYQDILRKIAIKCSTVDISGRTIRKLPLMCLSEYFRTFPVDDDEFVLALAMSARKLSAARK
- binding [1]: binds

B2: 3xFlag-Pch2 (protein, UniProt P38126 1-564)
chain: MSYIVDLQVRGSSLRVIKCMFREDEQISSLHSGSDSKQNSNKKLGEFLNLLKAVVKRKLESFPKDRLKTSIITGQELMREGQGSIEIKDPPTEAQQHLIRSLAKVLLHQFSSINGKVNTVNEGQDNLFLSLFVKKISIEQQSTSHVSIKLNFHEKINLGQHIDSILDSEETNESDTYHMGSVDEFIIYPFCCLEEQDELKNGSILSTEFDKIDLELDEDDGFEGETLNNCINSVGNFDIPLSKQTLNLVNISYLPGTTFEGQWESLYFGNNIKERLYSYATISLKIARFKQTGDSNQEDITTLITNNKLLLVHGPPGTGKTTLCKALCQKLSVRREFSDGSDTIDTNYKGIIIELSCARIFSKWFGESSKNISIVFKDIEELLKVNEGRGIFICLLIDEVEAIASSRTNLSSRNESTDGIRVVNTLLTQLDRLKKYHNFLALATSNLLDSLDDAFVDRADGVFYVGNPTAEGILHILKVCIEEMITSGIILFHARSTGVKFFNKYQDILRKIAIKCSTVDISGRTIRKLPLMCLSEYFRTFPVDDDEFVLALAMSARKLSAARK
- binding [1]: binds

B3: Orc2 (subunit of the insect cell–purified ORC), P32833 1-620 (protein)
chain: MLNGEDFVEHNDILSSPAKSRNVTPKRVDPHGERQLRRIHSSKKNLLERISLVGNERKNTSPDPALKPKTPSKAPRKRGRPRKIQEELTDRIKKDEKDTISSKKKRKLDKDTSGNVNEESKTSNNKQVMEKTGIKEKREREKIQVATTTYEDNVTPQTDDNFVSNSPEPPEPATPSKKSLTTNHDFTSPLKQIIMNNLKEYKDSTSPGKLTLSRNFTPTPVPKNKKLYQTSETKSASSFLDTFEGYFDQRKIVRTNAKSRHTMSMAPDVTREEFSLVSNFFNENFQKRPRQKLFEIQKKMFPQYWFELTQGFSLLFYGVGSKRNFLEEFAIDYLSPKIAYSQLAYENELQQNKPVNSIPCLILNGYNPSCNYRDVFKEITDLLVPAELTRSETKYWGNHVILQIQKMIDFYKNQPLDIKLILVVHNLDGPSIRKNTFQTMLSFLSVIRQIAIVASTDHIYAPLLWDNMKAQNYNFVFHDISNFEPSTVESTFQDVMKMGKSDTSSGAEGAKYVLQSLTVNSKKMYKLLIETQMQNMGNLSANTGPKRGTQRTGVELKLFNHLCAADFIASNEIALRSMLREFIEHKMANITKNNSGMEIIWVPYTYAELEKLLKTVLNTL
- binding [2]: binds

B4: Orc3 (subunit of the insect cell–purified ORC) (protein, UniProt P54790 1-616)
chain: MSDLNQSKKMNVSEFADAQRSHYTVYPSLPQSNKNDKHIPFVKLLSGKESEVNVEKRWELYHQLHSHFHDQVDHIIDNIEADLKAEISDLLYSETTQKRRCFNTIFLLGSDSTTKIELKDESSRYNVLIELTPKESPNVRMMLRRSMYKLYSAADAEEHPTIKYEDINDEDGDFTEQNNDVSYDLSLVENFKRLFGKDLAMVFNFKDVDSINFNTLDNFIILLKSAFKYDHVKISLIFNINTNLSNIEKNLRQSTIRLLKRNYHKLDVSSNKGFKYGNQIFQSFLDTVDGKLNLSDRFVEFILSKMANNTNHNLQLLTKMLDYSLMSYFFQNAFSVFIDPVNVDFLNDDYLKILSRCPTFMFFVEGLIKQHAPADEILSLLTNKNRGLEEFFVEFLVRENPINGHAKFVARFLEEELNITNFNLIELYHNLLIGKLDSYLDRWSACKEYKDRLHFEPIDTIFQELFTLDNRSGLLTQSIFPSYKSNIEDNLLSWEQVLPSLDKENYDTLSGDLDKIMAPVLGQLFKLYREANMTINIYDFYIAFRETLPKEEILNFIRKDPSNTKLLELAETPDAFDKVALILFMQAIFAFENMGLIKFQSTKSYDLVEKCVWRGI
- binding [3]: binds

B5: Pch2 2-242 (yeast two-hybrid fusion) (domain or fragment, UniProt P38126 2-242)
chain: SYIVDLQVRGSSLRVIKCMFREDEQISSLHSGSDSKQNSNKKLGEFLNLLKAVVKRKLESFPKDRLKTSIITGQELMREGQGSIEIKDPPTEAQQHLIRSLAKVLLHQFSSINGKVNTVNEGQDNLFLSLFVKKISIEQQSTSHVSIKLNFHEKINLGQHIDSILDSEETNESDTYHMGSVDEFIIYPFCCLEEQDELKNGSILSTEFDKIDLELDEDDGFEGETLNNCINSVGNFDIPLS
- binding [4]: binds
